In patent US20190225650A1, “PEPTIDOMIMETIC MACROCYCLES AND USE THEREOF IN REGULATING HIF1ALPHA” (AILERON THERAPEUTICS, INC., priority 2013, published 2019):
At least one structure is not confirmed: it was looked up by name or label, or the drawing left a doubt. Bridge positions count the residues as written; N and C are the ends. Square brackets hold non-standard residues; d marks the D form. Peptide text beside a SMILES is read from it. R8 = C=CCCCCCC[C@@](C)(N)C(=O)O; S5 = C=CCCC[C@](C)(N)C(=O)O; Nle = CCCC[C@H](N)C(=O)O

The molecules below were run against T1, flag-tagged HIF1α (AA 786-826) / His6-tagged p300 (AA 323-423) complex (Homo sapiens, UniProt Q09472) (assay: HIF1α p300 displacement assay (TR FRET, +CHAPS)). Details: read-out: IC50 (nM) (HIF1α_p300 Displacement + CHAPS).
T1 construct: His6-tagged p300 (AA 323-423); made in house; host or cells: E. coli (pETDuet vector)
Assay type: binding
How it was run: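 The co-expressed flag-HIF1α (786-826)/His6-p300 (323-423) complex, purified from E. coli with 0.1 mM ZnSO4, was used at 300 nM final with competitor peptides for 1 h at room temperature. Buffer was 150 mM NaCl, 20 mM HEPES pH 7.4, 7.5 mM CHAPS and 1 mM DTT. Anti-Flag-K (0.5 μM) and anti-His-D2 (4 nM) were then added for 2 h, and IC50s were fitted from the TR-FRET ratio.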

T1 sequence (Q09472 323-423, one chain of several): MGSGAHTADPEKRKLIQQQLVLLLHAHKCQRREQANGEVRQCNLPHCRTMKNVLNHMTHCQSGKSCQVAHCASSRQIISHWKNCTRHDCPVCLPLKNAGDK

Compared with `CCCC[C@H](NC(=O)[C@H](CC(C)C)NC(=O)[C@@H](NC(=O)[C@H](CCC(=O)O)NC(=O)[C@H](CCC(=O)O)NC(=O)[C@H](CC(=O)O)NC(=O)[C@@H](NC(=O)[C@H](Cc1ccccc1)NC(C)=O)[C@@H](C)CC)C(C)C)C(=O)N[C@@]1(C)CCCC=CCCC[C@@](C)(C(=O)N[C@@H](CCCC)C(=O)NCC(=O)N[C@@H](CC(C)C)C(=O)N[C@@H](CC(=O)O)C(=O)N[C@@H](CCCNC(=N)N)C(=O)N[C@H](C(N)=O)[C@@H](C)CC)NC(=O)[C@H]([C@@H](C)CC)NC(=O)[C@H](C(C)C)NC(=O)[C@H](CC(C)C)NC1=O` [SP-21] (Ac-FIDEEVL[Nle][S5]LVI[S5][Nle]GLDRI-NH2; staple 9-13), `CCCC[C@H](NC(=O)[C@H](CC(C)C)NC(=O)[C@@H](NC(=O)[C@H](CCC(=O)O)NC(=O)[C@H](CCC(=O)O)NC(=O)[C@H](CC(=O)O)NC(=O)[C@@H](NC(=O)[C@H](Cc1ccccc1)NC(C)=O)[C@@H](C)CC)C(C)C)C(=O)N[C@@]1(C)CCCC=CCCC[C@@](C)(C(=O)N[C@@H](CCCC)C(=O)N[C@@H](CO)C(=O)N[C@@H](CC(C)C)C(=O)N[C@@H](CC(=O)O)C(=O)N[C@@H](CCCNC(=N)N)C(=O)N[C@H](C(N)=O)[C@@H](C)CC)NC(=O)[C@H]([C@@H](C)CC)NC(=O)[C@H](C(C)C)NC(=O)[C@H](CC(C)C)NC1=O` [SP-55] (Ac-FIDEEVL[Nle][S5]LVI[S5][Nle]SLDRI-NH2; staple 9-13) is lower in IC50: 400 to 700 nM for the first, 200 to 400 nM for the second.

Compared with `CCCC[C@H](NC(=O)[C@H](CC(C)C)NC(=O)[C@@H](NC(=O)[C@H](CCC(=O)O)NC(=O)[C@H](CCC(=O)O)NC(=O)[C@H](CC(=O)O)NC(=O)[C@@H](NC(=O)[C@H](Cc1ccccc1)NC(C)=O)[C@@H](C)CC)C(C)C)C(=O)N[C@@]1(C)CCCC=CCCC[C@@](C)(C(=O)N[C@@H](CCCC)C(=O)N[C@@H](C)C(=O)N[C@@H](CC(C)C)C(=O)N[C@@H](CC(=O)O)C(=O)N[C@@H](CCCNC(=N)N)C(=O)N[C@@H](CO)C(N)=O)NC(=O)[C@H]([C@@H](C)CC)NC(=O)[C@H](C(C)C)NC(=O)[C@H](CC(C)C)NC1=O` [SP-59] (Ac-FIDEEVL[Nle][S5]LVI[S5][Nle]ALDRS-NH2; staple 9-13), `CCCC[C@H](NC(=O)[C@H](CC(C)C)NC(=O)[C@@H](NC(=O)[C@H](CCC(=O)O)NC(=O)[C@H](CCC(=O)O)NC(=O)[C@H](CC(=O)O)NC(=O)[C@@H](NC(=O)[C@H](Cc1ccccc1)NC(C)=O)[C@@H](C)CC)C(C)C)C(=O)N[C@@]1(C)CCCC=CCCC[C@@](C)(C(=O)N[C@@H](CCCC)C(=O)N[C@@H](C)C(=O)N[C@@H](CCC(=O)O)C(=O)N[C@@H](CC(=O)O)C(=O)N[C@@H](CCCNC(=N)N)C(=O)N[C@H](C(N)=O)[C@@H](C)CC)NC(=O)[C@H]([C@@H](C)CC)NC(=O)[C@H](C(C)C)NC(=O)[C@H](CC(C)C)NC1=O` [SP-40] (Ac-FIDEEVL[Nle][S5]LVI[S5][Nle]AEDRI-NH2; staple 9-13) is lower in IC50: 400 to 700 nM for the first, 200 to 400 nM for the second.

First: CCCC[C@H](NC(=O)[C@H](C)NC(=O)[C@]1(C)CCCC=CCCCCCC[C@@](C)(NC(=O)[C@H](C)NC(=O)[C@H](C)NC(=O)[C@@H](NC(=O)[C@H](CC(N)=O)NC(=O)[C@@H](NC(=O)[C@H](CCC(N)=O)NC(=O)[C@]2(C)CCCC=CCCC[C@](C)(NC(=O)[C@H](CC(C)C)NC(=O)[C@H](C)NC(=O)[C@H](C)NC(=O)CNC(=O)[C@H](CCC(N)=O)NC(=O)[C@H](CC(C)C)NC(=O)[C@H](CC(C)C)NC(C)=O)C(=O)N[C@@H](CCCNC(=N)N)C(=O)N[C@@H](C)C(=O)N[C@@H](CC(C)C)C(=O)N2)C(C)C)[C@@H](C)CC)C(=O)N[C@@H](C(C)C)C(=O)N[C@@H](CC(C)C)C(=O)N[C@@H](CCCC)C(=O)N[C@@H](CO)C(=O)N[C@@H](CC(C)C)C(=O)N[C@@H](C(C)C)C(=O)N1)C(N)=O [SP-364] (Ac-LLQGAAL[S5]RAL[S5]QVNIAA[R8]VL[Nle]SLV[S5]A[Nle]-NH2; staple 8-12, 19-26)
Second: CCCC[C@H](NC(=O)[C@H](CC(C)C)NC(=O)[C@@H](NC(=O)[C@H](CCC(=O)O)NC(=O)[C@H](CCC(=O)O)NC(=O)[C@H](CC(=O)O)NC(=O)[C@@H](NC(=O)[C@H](Cc1ccccc1)NC(C)=O)[C@@H](C)CC)C(C)C)C(=O)N[C@@]1(C)CCCC=CCCC[C@@](C)(C(=O)N[C@@H](CCCC)C(=O)N[C@@H](C)C(=O)N[C@@H](CC(C)C)C(=O)N[C@@H](CC(=O)O)C(=O)N[C@@H](CCCNC(=N)N)C(=O)N[C@H](C(=O)N[C@@H](CCC(=O)O)C(N)=O)[C@@H](C)CC)NC(=O)[C@H]([C@@H](C)CC)NC(=O)[C@H](C(C)C)NC(=O)[C@H](CC(C)C)NC1=O [SP-43] (Ac-FIDEEVL[Nle][S5]LVI[S5][Nle]ALDRIE-NH2; staple 9-13)
The IC50 of the first is higher: over 700 nM for the first, 400 to 700 nM for the second.

First: CC[C@H](C)[C@H](NC(=O)[C@H](Cc1ccccc1)NC(C)=O)C(=O)N[C@@H](CC(=O)O)C(=O)N[C@@H](CCC(=O)O)C(=O)N[C@@H](CCC(=O)O)C(=O)N[C@H](C(=O)N[C@@]1(C)CCCC=CCCC[C@@](C)(C(=O)N[C@H](C(=O)N[C@@H](CCC(=O)O)C(=O)N[C@@H](CCSC)C(=O)NCC(=O)N[C@@H](CC(C)C)C(=O)N[C@@H](CC(=O)O)C(=O)N[C@@H](CCCNC(=N)N)C(=O)N[C@H](C(=O)N[C@@H](CCCCN)C(=O)N[C@@H](CCC(=O)O)C(=O)N[C@@H](CC(C)C)C(=O)N2CCC[C@H]2C(=O)N[C@@H](CCC(=O)O)C(=O)N[C@@H](CC(C)C)C(=O)N[C@@H](Cc2c[nH]c3ccccc23)C(=O)N[C@@H](CC(C)C)C(N)=O)[C@@H](C)CC)[C@@H](C)CC)NC(=O)[C@H](CC(C)C)NC(=O)[C@H](CO)NC(=O)[C@H](CCSC)NC1=O)C(C)C [SP-78] (Ac-FIDEEV[S5]MSL[S5]IEMGLDRIKELPELWL-NH2; staple 7-11)
Second: CCCC[C@H](NC(=O)[C@H](CC(C)C)NC(=O)[C@@H](NC(=O)[C@H](CCC(=O)O)NC(=O)[C@H](CCC(=O)O)NC(=O)[C@H](CC(=O)O)NC(=O)[C@@H](NC(=O)[C@H](Cc1ccccc1)NC(C)=O)[C@@H](C)CC)C(C)C)C(=O)N[C@@]1(C)CCCC=CCCC[C@@](C)(C(=O)N[C@@H](CCCC)C(=O)N[C@@H](C)C(=O)N[C@@H](CC(C)C)C(=O)N[C@@H](CC(=O)O)C(=O)N[C@@H](C)C(=O)N[C@H](C(N)=O)[C@@H](C)CC)NC(=O)[C@H]([C@@H](C)CC)NC(=O)[C@H](C(C)C)NC(=O)[C@H](CC(C)C)NC1=O [SP-24] (Ac-FIDEEVL[Nle][S5]LVI[S5][Nle]ALDAI-NH2; staple 9-13)
The IC50 of the first is higher: over 700 nM for the first, 400 to 700 nM for the second. The second is the more potent here.
